Test results published in PMC7819943, “Rice protein-binding microarrays: a tool to detect cis-acting elements near promoter regions in rice”.
The list shows a part of the results.

Each sequence was assayed against T1, OsWOX13 (Oryza sativa, UniProt Q5QMM3 1-267) (assay: protein-binding microarray (RPBM); PBS, 2% BSA, 51.3 ng/ul salmon testes DNA, 50 uM zinc acetate, 200 nM TF, 25 C, 1 h; high values mean tight binding). Details: protein: recombinant; tags: N-terminal polyhistidine and DsRed monomer fusion (pET32a); label: CyDye5-dUTP incorporated in the synthesized complementary strand; 3' TTTTT single-stranded linker to array surface; dsDNA, one strand shown.
T1 sequence: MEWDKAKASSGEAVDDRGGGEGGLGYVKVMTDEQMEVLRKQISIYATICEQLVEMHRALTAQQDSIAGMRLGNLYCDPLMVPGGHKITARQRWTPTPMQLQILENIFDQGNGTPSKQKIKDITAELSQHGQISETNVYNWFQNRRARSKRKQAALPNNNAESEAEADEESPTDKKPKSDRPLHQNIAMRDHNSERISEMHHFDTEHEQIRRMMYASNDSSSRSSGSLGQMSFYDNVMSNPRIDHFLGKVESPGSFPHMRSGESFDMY
In short: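 An Axon 4000B scanner gave the binding signal as per-feature fluorescence intensity in arbitrary units. This followed washing of a custom Agilent array that had been incubated for 1 h at 25 °C with 200 nM protein in PBS, 2% BSA, salmon testes DNA and 50 µM zinc acetate. The proteins were transcription factors fused at the N-terminus to polyhistidine and DsRed, expressed in E. coli BL21-CodonPlus and purified on Ni–NTA.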

| Sequence | binding signal |
| --- | --- |
| TTGTTAATTTCACAGGTTCATGCACTCAAGATTGCGGACACGGAGTCACCTAGTGCAG | 6380 fluorescence intensity (a.u.) |
| CAAAATATTTTAGATTACTCGTCTCATCAACCACCGCAATCGGAGTCACCTAGTGCAG | 3910 fluorescence intensity (a.u.) |
| CTGCTTAATTAGCTGAACCTTGGATTAACCATTATTTCGACGGAGTCACCTAGTGCAG | 25200 fluorescence intensity (a.u.) |
| GTAGGCTGATTAGAGATAAATAATTAAGTGCAGAAGCAAGCGGAGTCACCTAGTGCAG | 24500 fluorescence intensity (a.u.) |
| CAATAATTGAGTGATTTGGCCCAGTCCAGGAACTAGTAAGCGGAGTCACCTAGTGCAG | 56100 fluorescence intensity (a.u.) |
| GGCGACAAATTGAGGGACCTAAAGTGAACTTATTCCAGCCCGGAGTCACCTAGTGCAG | 8920 fluorescence intensity (a.u.) |
| TGAAATTGACTTGCGCTCAACAATATTTGCTTATCGGAAACGGAGTCACCTAGTGCAG | 29100 fluorescence intensity (a.u.) |
| GTAGTAATAAATTGAACTCTGGTTCGATAGTGTTCGATTTCGGAGTCACCTAGTGCAG | 12800 fluorescence intensity (a.u.) |
| CGCCATAATTGCATCCCCTATTCTTCGCCACCACCATCGCCGGAGTCACCTAGTGCAG | 25700 fluorescence intensity (a.u.) |
| CACTTTAAATTTAAATTATTAGAATTGCTATAGATACTGTCGGAGTCACCTAGTGCAG | 33500 fluorescence intensity (a.u.) |
| AGTGAGTGGTGGAGGGTTGTGATTGGATGAGTAGTGAAGGCGGAGTCACCTAGTGCAG | 4630 fluorescence intensity (a.u.) |
| AATTTAAGTAATTATTTATTCTTTTCATATCATTTGATTCCGGAGTCACCTAGTGCAG | 4230 fluorescence intensity (a.u.) |
| GTAAATTTGGTATTAAAGCTGTACTTAATAATTTGATCGACGGAGTCACCTAGTGCAG | 5960 fluorescence intensity (a.u.) |
| ATCTCAATCAGCAACACAAATGACCCTGACCCACGATCCACGGAGTCACCTAGTGCAG | 20900 fluorescence intensity (a.u.) |
| AACTGAAAATGATGGGTTCAATTAACATGTTCTCCTCACGCGGAGTCACCTAGTGCAG | 11700 fluorescence intensity (a.u.) |
| CAAATTCTATCTATCTAATATCTATAAATTTCATCTGCACCGGAGTCACCTAGTGCAG | 3320 fluorescence intensity (a.u.) |
| GGAATTGATCCTGAATTTGCTACTAAGAAATTAATGTAAACGGAGTCACCTAGTGCAG | 6040 fluorescence intensity (a.u.) |
| CCAAAATTGAAAGTTTGACTAAAATTGAAAGTTTGAAGAACGGAGTCACCTAGTGCAG | 15700 fluorescence intensity (a.u.) |
| AAATCTAATTAAATAAATTATCTATGTTTAAAAGAGTAATCGGAGTCACCTAGTGCAG | 11600 fluorescence intensity (a.u.) |
| TGTATAATTTGTAATCACAATGGCGGCATATACTTCTATCCGGAGTCACCTAGTGCAG | 21600 fluorescence intensity (a.u.) |
| TAGATTTTAATTTCAATCAAATTTTCAATTTTAACGTGAACGGAGTCACCTAGTGCAG | 27800 fluorescence intensity (a.u.) |

| Sequence | binding signal |
| --- | --- |
| CAACATGGTAAATTGATTCTAACTAATTCTAATATGTATGCGGAGTCACCTAGTGCAG | 19400 fluorescence intensity (a.u.) |
| TCCAATTACCATGACACTATATATCAAATTTCAAAGTTGACGGAGTCACCTAGTGCAG | 3880 fluorescence intensity (a.u.) |
| ATCAAACTAATTAGTTAATGTAGATTATCTATAACAAAGACGGAGTCACCTAGTGCAG | 23700 fluorescence intensity (a.u.) |
| TTAGATTGCAGATGAACCGTAACTAACGGCGTCTGCAAAACGGAGTCACCTAGTGCAG | 4910 fluorescence intensity (a.u.) |
| ACGGAGGGTGTAATAATCAATCAATCCTATGTTAATTGTTCGGAGTCACCTAGTGCAG | 15800 fluorescence intensity (a.u.) |
| GTGTCCATCATAGCATGATGATGATGATGCGCATTCGCCACGGAGTCACCTAGTGCAG | 5000 fluorescence intensity (a.u.) |
| GAACAAATCTTAAATATAATTATGTACCGTATAATTGGCTCGGAGTCACCTAGTGCAG | 13500 fluorescence intensity (a.u.) |
| ATATTTGATTAGATCGGTAATGGATGGCTATAACGTATGCCGGAGTCACCTAGTGCAG | 58500 fluorescence intensity (a.u.) |
| GTTAATCACATTTTAGATATTGCGCATCGTGGTTAGTTGCCGGAGTCACCTAGTGCAG | 7190 fluorescence intensity (a.u.) |
| TCCAAATAGAGTTTAATAATTTGTTTCCTATACTTCCTACCGGAGTCACCTAGTGCAG | 5130 fluorescence intensity (a.u.) |
| TCTATTTAATTAATCCTAGAGTATCTGTAAGGTACCTTGGCGGAGTCACCTAGTGCAG | 8940 fluorescence intensity (a.u.) |
| AGAGATCTTTGATTTGTGTTTGCTTGGGTTCGGCGGTTCACGGAGTCACCTAGTGCAG | 6460 fluorescence intensity (a.u.) |
| CCTAGCTAATTTCATCTCCCACGCCGAACGGAAACACATCCGGAGTCACCTAGTGCAG | 3360 fluorescence intensity (a.u.) |
| ATTAACCAGTATTAATAATTGAGGGACGTTGTATACTGGGCGGAGTCACCTAGTGCAG | 20500 fluorescence intensity (a.u.) |
| CGAATCTAAACAATCAATATTTAATTATACTTCCTCTAGACGGAGTCACCTAGTGCAG | 12600 fluorescence intensity (a.u.) |
| CGTAATTAGGCTTAAAAGATTCGTCTCGTAATTTACACGCCGGAGTCACCTAGTGCAG | 32500 fluorescence intensity (a.u.) |
| TTAATTGGTCAGTCATCAGTGTGTGTTAGGAACGTACGTACGGAGTCACCTAGTGCAG | 30000 fluorescence intensity (a.u.) |
| TTCAAATTTACAGGGTAAAATGTCAAAGGAAACCGACATTCGGAGTCACCTAGTGCAG | 5490 fluorescence intensity (a.u.) |
| ACAAATGGATTAATGACTGTTTGACTCGCTTGCTCACTAGCGGAGTCACCTAGTGCAG | 34200 fluorescence intensity (a.u.) |
| TTTTAATAATGTAATTCATGAATTTCTTTATTTATCCAAGCGGAGTCACCTAGTGCAG | 6580 fluorescence intensity (a.u.) |
| CGTGTAGTACCAATCAATACGTCTCCAGTTGAGTAAGATACGGAGTCACCTAGTGCAG | 3700 fluorescence intensity (a.u.) |
